Measurements taken from patent US20250381289A1 (Genmab, published 2025).

What was measured:
[1] = target: T1, EGFR on EGFR and cMET co-expressed tumor cell lines (UniProt P00533); assay: flow cytometry, MKN-45 cells (co-express EGFR and cMET; both arms contribute)
T1 construct: whole, on cells

[2] = target: T2, cMET on EGFR and cMET co-expressed tumor cell lines (UniProt P08581); assay: as above
T2 construct: whole, on cells

[3] = target: T1, EGFR on EGFR and cMET co-expressed …; assay: flow cytometry, EBC-1 cells (co-express EGFR and cMET; both arms contribute)
[4] = target: T2, cMET on EGFR and cMET co-expressed …; assay: as above

T2 sequence (P08581 25-1390 limits assumed): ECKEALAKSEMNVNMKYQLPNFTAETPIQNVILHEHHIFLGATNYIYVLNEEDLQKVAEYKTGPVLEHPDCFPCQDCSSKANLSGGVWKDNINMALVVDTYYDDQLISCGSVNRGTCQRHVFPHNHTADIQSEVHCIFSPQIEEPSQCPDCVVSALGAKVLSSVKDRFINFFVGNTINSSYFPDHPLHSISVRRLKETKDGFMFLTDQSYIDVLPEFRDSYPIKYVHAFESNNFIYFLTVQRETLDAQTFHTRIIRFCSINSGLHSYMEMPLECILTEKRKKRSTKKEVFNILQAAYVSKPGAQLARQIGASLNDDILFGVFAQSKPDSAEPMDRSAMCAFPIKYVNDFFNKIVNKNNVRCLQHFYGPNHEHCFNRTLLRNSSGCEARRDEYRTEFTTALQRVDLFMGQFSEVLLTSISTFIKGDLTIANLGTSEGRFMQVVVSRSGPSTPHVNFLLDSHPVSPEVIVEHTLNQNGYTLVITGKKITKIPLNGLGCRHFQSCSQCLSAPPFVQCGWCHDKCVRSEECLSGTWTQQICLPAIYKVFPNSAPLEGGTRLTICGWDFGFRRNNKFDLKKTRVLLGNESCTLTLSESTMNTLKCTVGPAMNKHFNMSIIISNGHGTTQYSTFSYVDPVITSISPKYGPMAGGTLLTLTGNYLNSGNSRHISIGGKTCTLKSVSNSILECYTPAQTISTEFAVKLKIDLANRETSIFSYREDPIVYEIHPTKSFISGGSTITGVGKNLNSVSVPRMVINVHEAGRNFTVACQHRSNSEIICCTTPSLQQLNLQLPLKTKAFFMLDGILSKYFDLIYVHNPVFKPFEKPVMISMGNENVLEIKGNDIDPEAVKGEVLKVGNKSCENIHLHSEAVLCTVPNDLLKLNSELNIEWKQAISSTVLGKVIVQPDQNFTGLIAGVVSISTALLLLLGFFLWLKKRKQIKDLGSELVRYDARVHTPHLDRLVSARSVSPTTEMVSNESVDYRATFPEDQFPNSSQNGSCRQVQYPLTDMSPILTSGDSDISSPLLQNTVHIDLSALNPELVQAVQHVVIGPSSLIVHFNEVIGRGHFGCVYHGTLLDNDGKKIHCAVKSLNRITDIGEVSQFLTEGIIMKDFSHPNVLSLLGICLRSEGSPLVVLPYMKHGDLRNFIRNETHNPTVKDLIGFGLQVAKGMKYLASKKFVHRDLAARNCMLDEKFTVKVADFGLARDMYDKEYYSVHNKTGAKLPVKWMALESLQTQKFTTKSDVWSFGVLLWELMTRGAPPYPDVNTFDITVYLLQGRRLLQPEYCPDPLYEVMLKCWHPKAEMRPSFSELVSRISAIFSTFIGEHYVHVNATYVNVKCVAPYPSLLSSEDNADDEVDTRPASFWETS

Binder | EC50 (read off the curve) [1] | EC50 (read off the curve) [2] | EC50 (read off the curve) [3] | EC50 (read off the curve) [4]
Bsab 52 WT (bispecific antibody, human IgG1, kappa, also called Basb 52 WT) chain 1: AIQLTQSPSSLSASVGDRVTITCRASQDISSALVWYQQKPGKAPKLLIYDASSLESGVPSRFSGSESGTDFTLTISSLQPEDFATYYCQQFNSYPLTFGGGTKVEIKRTVAAPSVFIFPPSDEQLKSGTASVVCLLNNFYPREAKVQWKVDNALQSGNSQESVTEQDSKDSTYSLSSTLTLSKADYEKHKVYACEVTHQGLSSPVTKSFNRGECGGGGSGGGGSGGGGSGGGGSGGGGSGGGGSGGGGSGGGGSQVQLVESGGGVVQPGRSLRLSCAASGFTFSTYGMHWVRQAPGKGLEWVAVIWDDGSYKYYGDSVKGRFTISRDNSKNTLYLQMNSLRAEDTAVYYCARDGITMVRGVMKDYFDYWGQGTLVTVSS[omitted - human IgG1 constant region with changes] chain 2: DIQMTQSPSSVSASVGDRVTITCRASQGISNWLAWFQHKPGKAPKLLIYAASSLLSGVPSRFSGSGSGTDFTLTISSLQPEDFATYYCQQANSFPITFGQGTRLEIKRTVAAPSVFIFPPSDEQLKSGTASVVCLLNNFYPREAKVQWKVDNALQSGNSQESVTEQDSKDSTYSLSSTLTLSKADYEKHKVYACEVTHQGLSSPVTKSFNRGECGGGGSGGGGSGGGGSGGGGSGGGGSGGGGSGGGGSGGGGSQVQLVQSGAEVKKPGASVKVSCETSGYTFTSYGISWVRQAPGHGLEWMGWISAYNGYTNYAQKLQGRVTMTTDTSTSTAYMELRSLRSDDTAVYYCARDLRGTNYFDYWGQGTLVTVSSASTKGPSVFPLAPSSKSTSGGTAALGCLVKDYFPEPVTVSWNSGALTSGVHTFPAVLQSSGLYSLSSVVTVPSSSLGTQTYICNVNHKPSNTKVDKKV[omitted - human IgG1 Fc with S354C T366S L368A Y407V (EU numbers)] | ~1 nM | ~1 nM | – | –
Bsab 43 (bispecific antibody, human IgG1, kappa) anti EGFR knob chain (scFab): DIQMTQSPSSLSASVGDRVTITCRSSQNIVHSNGNTYLDWYQQTPGKAPKLLIYKVSNRFSGVPSRFSGSGSGTDFTFTISSLQPEDIATYYCFQYSHVPWTFGQGTKLQITRTVAAPSVFIFPPSDEQLKSGTASVVCLLNNFYPREAKVQWKVDNALQSGNSQESVTEQDSKDSTYSLSSTLTLSKADYEKHKVYACEVTHQGLSSPVTKSFNRGECGGGGSGGGGSGGGGSGGGGSGGGGSGGGGSGGGGSGGGGSQVQLQQSGAEVKKPGSSVKVSCKASGYTFTNYYIYWVRQAPGQGLEWIGGINPTSGGSNFNEKFKTRVTITADESSTTAYMELSSLRSEDTAFYFCTRQGLWFDSDGRGFDFWGQGTTVTVSS[omitted - human IgG1 constant region with changes] anti cMET hole chain (scFab): DIVMTQSPDSLAVSLGERATINCKSSESVDSYANSFLHWYQQKPGQPPKLLIYRASTRESGVPDRFSGSGSGTDFTLTISSLQAEDVAVYYCQQSKEDPLTFGGGTKVEIKRTVAAPSVFIFPPSDEQLKSGTASVVCLLNNFYPREAKVQWKVDNALQSGNSQESVTEQDSKDSTYSLSSTLTLSKADYEKHKVYACEVTHQGLSSPVTKSFNRGECGGGGSGGGGSGGGGSGGGGSGGGGSGGGGSGGGGSGGGGSQVQLVQSGAEVKKPGASVKVSCKASGYIFTAYTMHWVRQAPGQGLEWMGWIKPNNGLANYAQKFQGRVTMTRDTSISTAYMELSRLRSDDTAVYYCARSEITTEFDYWGQGTLVTVSSASTKGPSVFPLAPSSKSTSGGTAALGCLVKDYFPEPVTVSWNSGALTSGVHTFPAVLQSSGLYSLSSVVTVPSSSLGTQTYICNVNHKPSNTKVDKKVEPKSCDKTHTCPPCPAPEAAGGPSVFLFPPKPKDTLMISRTPEVTCVVVDVSHEDPEVKFNWYVDGVEVHNAKTKPREEQYNSTYRVVSVLTVLHQDWLNGKEYKCKVSNKALPAPIEKTISKAKGQPREPQVYTLPPCRDELTKNQVSLSCAVKGFYPSDIAVEWESNGQPENNYKTTPPVLDSDGSFFLVSKLTVDKSRWQQGNVFSCSVMHEALHNHYTQKSLSLSPGK | – | – | ~2 nM | ~2 nM
